Measured values as given in PubChem BioAssay (NCI).
Where “and” joins values, the source holds several entries; their conditions need not be identical. Identical values can stand only once.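 Five compound concentrations were applied to cells in 96-well plates for 48 hours; endpoints were derived by simple linear interpolation of the resulting dose-response curve. GI50: concentration for 50% inhibition of growth. TGI: concentration producing complete growth inhibition.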

Test system: NCI-H322M lung
Assay: growth of human tumour cells (NCI), 48 h

Which results are given for O=C1c2cc(Br)ccc2-c2c1c1ccccc1c(=O)n2CCCCl?
GI50: 12.4 µM; TGI: > 100 µM

With O=c1cc(N2CCOCC2)oc2c(-c3ccccc3)cccc12 as the molecule, how does the GI50 read?
The GI50 was 9.09 µM.

And the TGI?
The TGI was > 68.2 µM and 55.3 µM.

For Brc1ccc2c(c1)[C@H]1CCc3c([nH]c4ccccc34)[C@H]1N2, which TGI is on record?
The TGI was 23.1 µM.

For CCCCC#Cc1c(I)n(C2OC(CO[Si](C)(C)C(C)(C)C)C3OC(C)(C)OC32)c(=O)[nH]c1=O (configuration not stated), which GI50 is on record?
Its GI50 is 15.4 µM.

What about the TGI of the same molecule?
Its TGI is 30.4 µM.

For O=c1c2ccccc2oc2nccnc12, which TGI is on record?
Its TGI is over 100 µM.

With COc1ccc(/C=N/N=C(N)N)c(C(=O)O)c1OC as the molecule, how does the TGI read?
Its TGI is over 10 µM.

How did the TGI turn out when O=C(NC12CC3CC(CC(C3)C1)C2)n1cnc2cncnc21 was run?
Its TGI is over 100 µM.

With CC(C)=CCC[C@@H](C)c1c(O)c(O)c(C)c2nc3ccccc3nc12 as the molecule, how does the TGI read?
Its TGI is 10.6 µM.

How did the TGI turn out when O=C(O)c1cc(/C=C/c2ccc(O)c(O)c2)ccc1O was run?
The TGI was over 100 µM.
